Experimental data from PubChem BioAssay AID360 (National Center for Advancing Translational Sciences (NCATS), 2006).
Among all 48,000 compounds or so, about 550 (1.1%) were called active. Not shown: some 4% with an inconclusive outcome. Rule as the data show it: active = potency below about 15 µM; inconclusive = mostly about 16 µM to 33 µM; inactive = weaker than that. The list shows a part of the results.

Molecular target: Lysosomal acid glucosylceramidase (Homo sapiens) (UniProt P04062)
Experiment: Glucocerebrosidase;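 also: the screen sought inhibitors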
Conditions: purified enzyme, resorufin glucoside fluorescence (screen aimed at inhibitors), 20 min; series mostly up to 77 µM
Summary of the method: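 Normal human glucocerebrosidase (0.2 nM final) was assayed with resorufin β-D-glucopyranoside (30 uM final) in 50mM citric acid/KH2PO4, 10mM sodium taurocholate, 0.01% tween-20, pH 5.9. Compounds were titrated; fluorescence (Ex 548, Em 600) read after 20 min at RT.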
Potency is read from the fitted curve at half-maximal effect.

Sequence of UniProt P04062 (P04062 whole entry, looked up): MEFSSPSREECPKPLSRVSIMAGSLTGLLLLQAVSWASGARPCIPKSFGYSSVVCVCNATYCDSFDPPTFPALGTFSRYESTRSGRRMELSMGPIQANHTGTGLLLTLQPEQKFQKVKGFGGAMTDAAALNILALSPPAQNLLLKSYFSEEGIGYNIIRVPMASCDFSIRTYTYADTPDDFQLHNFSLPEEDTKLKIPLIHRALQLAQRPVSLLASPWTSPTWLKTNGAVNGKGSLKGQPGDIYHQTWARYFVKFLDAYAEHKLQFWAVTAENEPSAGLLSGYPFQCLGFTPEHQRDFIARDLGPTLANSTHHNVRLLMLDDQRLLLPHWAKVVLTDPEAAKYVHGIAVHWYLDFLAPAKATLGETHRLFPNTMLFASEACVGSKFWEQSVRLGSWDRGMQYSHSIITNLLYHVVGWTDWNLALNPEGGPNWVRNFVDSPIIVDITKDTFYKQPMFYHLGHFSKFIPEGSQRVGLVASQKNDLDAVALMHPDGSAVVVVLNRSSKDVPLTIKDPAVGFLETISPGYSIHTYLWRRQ

Potency, inactive:
COC(=O)CN1C(=O)C(C)(C)Oc2ccc(C(=O)NC3CC3)cc21 > 76.9 µM
CC(=O)c1c(C)[nH]c(C(=O)OC2CCCCC2=O)c1C (stereo unspecified) > 76.9 µM
CCN(CC)CCNC(=O)C(C(=O)c1ccccc1)n1ccccc1=O (stereo unspecified) > 76.9 µM
Cn1nnnc1SCC(=O)Nc1nc(-c2ccccc2)c(-c2ccccc2)o1 > 76.9 µM
Cc1ccc2c(c1)N(CCC(=O)NCC1COc3ccccc3O1)C(=O)CO2 (stereo unspecified) > 76.9 µM
N#CCCn1c(Cl)nc2ccccc21 > 76.9 µM
O=C(O)C1C2C=CC(C2)C1C(=O)NCCc1ccncc1 (stereo unspecified) > 76.9 µM
COCCn1c(=NC(=O)CSC(C)=O)sc2cc(F)ccc21 > 76.9 µM
O=C(NCCN1CCN(c2cccc(Cl)c2)CC1)c1cccn2c(=O)c3ccccc3nc12 > 76.9 µM
COc1ccc(NS(=O)(=O)c2c(C)[nH]c(=O)[nH]c2=O)c(OC)c1 > 76.9 µM
Cc1cccc(CCNS(=O)(=O)c2cnc[nH]2)c1 > 76.9 µM
COc1cc(C2C(C#N)=C(C)NC3=C2C(=O)c2ccccc23)cc(OC)c1OC (stereo unspecified) > 76.9 µM
COc1ccccc1C(=O)N1CCCC(c2nc(-c3cc(OC)c(OC)c(OC)c3)no2)C1 (stereo unspecified) > 76.9 µM
COC(=O)c1cc(OC)c(OC)cc1NC(=O)CN1CCCCC1 > 76.9 µM
CCOC(=O)C1CCN(C(c2cc3ccc(C)c(C)c3[nH]c2=O)c2nnnn2C2CCCCC2)CC1 (stereo unspecified) > 76.9 µM
Cc1ccc2c(CC(=O)O)coc2c1C > 76.9 µM
CCOc1cccc(C(=O)N(Cc2ccco2)C2CCS(=O)(=O)C2)c1 (stereo unspecified) > 76.9 µM
Cc1ccc(-n2c(N)c(C(=O)N3CCCCC3)sc2=S)cc1 > 76.9 µM
CCOC(=O)c1[nH]nc(C(=O)c2ccc(Br)cc2)c1O > 76.9 µM
Clc1ccccc1Nc1ncnc2c1nnn2Cc1ccccc1 > 76.9 µM
CCOC(=O)CSc1nnnn1-c1cc(OC)ccc1OC > 76.9 µM
Cc1cccc(/N=C/c2c(O)c3ccccc3oc2=O)n1 > 76.9 µM
COc1cc(NC(=O)c2noc3c2CCC3)c(OC)cc1Cl > 76.9 µM
CN(CCNC(=O)c1cccc(N2CCCC2=O)c1)Cc1ccccc1 > 76.9 µM
COc1ccc(NC(=O)c2cnc(C)cn2)cc1-n1cnnn1 > 76.9 µM
Cc1cc(NC(=O)COc2cccc(Oc3ccccc3)c2)no1 > 76.9 µM
Clc1ccc(-c2noc(CN3CCCC3)n2)cc1 > 76.9 µM
Cc1ccc(Cl)cc1N1CCN(Cc2nnnn2Cc2ccco2)CC1 > 76.9 µM
Cc1cc2n(n1)C(c1ccc(O)cc1)Nc1ccccc1-2 (stereo unspecified) > 76.9 µM
CCc1c(C)c2cc(Cl)c(O)c(CN(C)C)c2oc1=O > 76.9 µM
CCOC(=O)c1cncc(NC(=O)c2ccccc2)c1 > 76.9 µM
Cc1ccnc(SCCn2c(N3CCC(C)CC3)nc3c2c(=O)n(C)c(=O)n3C)n1 > 76.9 µM
CC(=O)c1cccc(NC(=O)C2CCCN(S(C)(=O)=O)C2)c1 (stereo unspecified) > 76.9 µM
COc1ccccc1OCC(=O)Nc1nnc(-c2ccco2)s1 > 76.9 µM
CC(C)OC(=O)CSc1nc2cccnc2n1C1CCCCC1 > 76.9 µM
CCCCN(C(=O)NC(=O)Nc1cc(C)ccc1C)S(C)(=O)=O > 76.9 µM
O=C(Cc1ccccc1F)Nc1nc(-c2cccs2)cs1 > 76.9 µM
Nc1nonc1C(=O)NCCNC(=O)c1ccccc1F > 76.9 µM
CN=C(Nc1cc(C)nn1CCC#N)c1ccc(F)cc1 > 76.9 µM
CCOc1ccc(C(=O)Nc2ccc(Cl)cn2)cc1Cl > 76.9 µM
COc1ccc(Cl)cc1-n1c(=S)sc2c(=O)[nH]c(SCC(=O)NCC3CCCO3)nc21 (stereo unspecified) > 76.9 µM
CCN1C(=O)N(C)C2(c3ccccc3)N(C)C(=O)N(C)C12c1ccccc1 (stereo unspecified) > 76.9 µM
O=C(CC1(O)C(=O)Nc2ccc(Br)cc21)c1ccc2c(c1)OCO2 (stereo unspecified) > 76.9 µM
CCOC(=O)c1ccc(NC(=O)CSc2nnc(CNC(=O)c3c(F)cccc3Cl)o2)cc1 > 76.9 µM
CC(=O)NCC12CC3CC(C1)CC(C(=O)O)(C3)C2 > 76.9 µM
Cc1nc(NCCN2CCOCC2)c2nnn(Cc3c(F)cccc3Cl)c2n1 > 76.9 µM
C=CCOc1c(Br)cc(CNn2nnnc2N)cc1OCC > 76.9 µM
Cc1cc(=S)cc(C)n1CCCO > 76.9 µM
CC1=C(C(=O)NCCN2CCN(C)CC2)C2(CCC(C)CC2)OC1=O (stereo unspecified) > 76.9 µM
COc1ccc(CC(=O)Nc2c3c(nn2-c2cccc(C)c2C)CS(=O)(=O)C3)cc1 > 76.9 µM
N#Cc1c(NC(=O)c2nc3ncccn3n2)sc2c1CCCCC2 > 76.9 µM
COCCCNC(=O)CN(c1cc(OC)ccc1OC)S(=O)(=O)c1ccccc1 > 76.9 µM
CCOC(=O)c1cc(S(=O)(=O)NC2CCN(C(=O)OCC)CC2)cn1C > 76.9 µM
O=C(CN1C(=O)c2ccccc2S1(=O)=O)N1CCc2ccccc21 > 76.9 µM
CCOC(=O)c1[nH]c(C)c(/C(O)=C2\C(=O)C(=O)N(CCN(C)C)C2c2ccc(C)o2)c1C (stereo unspecified) > 76.9 µM
Cc1ccc2[nH]c3c(=O)n(CCCN4CCOCC4)cnc3c2c1 > 76.9 µM
CCOCCCNCc1ccc(OC)c(OC)c1 > 76.9 µM
Cc1cc(C)n2nc(C(=O)Nc3cccnc3)nc2n1 > 76.9 µM
Cc1cc(=O)cc(C)n1-c1ccccc1N1CCOCC1 > 76.9 µM
COC(=O)C1=C(N)OC2=C(C(=O)CCC2)C1c1cccs1 (stereo unspecified) > 76.9 µM
COc1ccccc1NC(=O)C(C)Sc1nnnn1C (stereo unspecified) > 76.9 µM
CC1CCCN(S(=O)(=O)c2ccc(NC(=O)Cn3nnc(-c4ccccc4F)n3)cc2)C1 (stereo unspecified) > 76.9 µM
CCOCCCNC(=O)c1[nH]c(C)c(C(C)=O)c1C > 76.9 µM
Cn1c(CN2CCOCC2)nc2cc(NC(=O)c3ccc(Cl)cc3)ccc21
COc1ccc(-c2nc(CS(=O)CC(=O)NCCCN3CC(C)CC(C)C3)c(C)o2)cc1OC (stereo unspecified) > 76.9 µM
CCOC(=O)C1CCCN(C(=O)c2ccc3c(c2)OCO3)C1 (stereo unspecified) > 76.9 µM
Cc1nc(NCC2CCCO2)[nH]c(=O)c1CCC(C)C (stereo unspecified) > 76.9 µM
O=c1c2ccccc2nnn1CSc1nnc(Nc2ccccc2)s1 > 76.9 µM
CC(=O)OC(C(=O)n1nc(C)cc1C)c1ccccc1 (stereo unspecified) > 76.9 µM
COc1ccc(CCNC(=O)c2nnn(-c3ccccc3OC)c2N)cc1OC > 76.9 µM
Cc1c(C(=O)Nc2ccc3oc(-c4cccnc4)nc3c2)oc2ccccc12 > 76.9 µM
CN(C)/C=C1\C(=O)c2ccc(N(C)C)nc2CC1c1ccccc1 (stereo unspecified) > 76.9 µM
C=C(C)COc1ccc(-c2nc(N)ncc2Oc2ccc(OC)cc2)c(O)c1 > 76.9 µM
COc1ccc2[nH]c(=O)c(CN(CC3CCCO3)C(=O)Nc3ccc(F)cc3)cc2c1 (stereo unspecified) > 76.9 µM
CC(C)COc1ccc(-c2nnc(-c3ccncc3)o2)cc1 > 76.9 µM
CCCCNC(=O)CCC(=O)Nc1ncc(-c2ccc(C)cc2)n1C > 76.9 µM
Cc1occc1-c1nnc(SCC(=O)NCc2ccc3c(c2)OCO3)n1CC(C)C > 76.9 µM
O=C(NCC1COc2ccccc2O1)Nc1ccccc1F (stereo unspecified) > 76.9 µM
COc1ccc(C2C(C#N)=C(N)Oc3n[nH]c(-c4ccccn4)c32)c(OC)c1OC (stereo unspecified) > 76.9 µM
CCOC(=O)c1ccc(S(=O)(=O)Nc2ccccc2-c2nnn(CC)n2)cc1 > 76.9 µM
COC(=O)CNC(=O)c1ccc(=O)oc1 > 76.9 µM
CCCN1Cc2cccc(C(=O)Nc3ccc(CN4CCCC4)cc3)c2C1=O > 15.4 µM
Cc1ccc(C(=O)OCC(=O)NCc2ccc3c(c2)OCO3)s1 > 76.9 µM
CCOC(=O)c1ccc2[nH]cc(C(C)=O)c(=O)c2c1 > 76.9 µM
CNc1nc(NC)nc(-n2c(C(F)(F)F)nc3ccccc32)n1 > 76.9 µM
O=C(CC(NS(=O)(=O)c1ccc(Cl)cc1)c1ccco1)NCc1ccco1 (stereo unspecified) > 76.9 µM
Cn1cnnc1SCC(=O)OCN1C(=O)c2ccccc2C1=O > 76.9 µM
Brc1c(CSc2nnc(-c3ccco3)o2)nc2ccccn12 > 76.9 µM
CCCOc1ccc(C(CC(=O)O)NC(=O)c2ccc3c(c2)OCO3)cc1 (stereo unspecified) > 76.9 µM
CC(=O)N1CC=C2C(C#N)=C(N)C(C#N)(C#N)C(CCc3ccccc3)C2C1 (stereo unspecified) > 76.9 µM
COc1ccc(OC)c(NC(=O)CSc2nc3c(c(=O)n(C)c(=O)n3C)n2C)c1 > 76.9 µM
